Sequences and labels used below:
B1: CPEB3 Ribozyme (parent)
chain: UAACAGGGGGCCACAGCAGAAGCGUUCACGUCGCAGCCCCUGUCAGAUUCUGGUGAAUCUGCGAAUUCUGCUGUAUAUCUC

Read counts are not given, so values of variants with three or more changes are uncertain.

The variants in this data set derive from B1. Briefly: self-cleavage, relative activity (ratio to wild type); higher = more cleavage; in vitro, sequencing. In a few lines: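 CPEB3 self-cleaving ribozyme mutant libraries were made by rounds of error-prone PCR, barcoded, and transcribed in vitro with T7 RNA polymerase for 5 hours at 37°C. Cleavage occurred during transcription and a 15 min DNase I step before EDTA stop. RNAs were reverse transcribed with template switching and Illumina-sequenced, with DNA sequencing mapping barcodes to variants. Relative activity is the variant's cleaved/total read fraction divided by wild type's (minimum 5 reads), averaged across three batches.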
Take U41A U48C G70U: the self-cleavage amounted to 0.22.

For the variant U41C A57G U72C U80C, the self-cleavage worked out at 1.13.

As for U41A U60C A65G U78C, the self-cleavage was 0.1.

On to U41A U49C A65G U74A, for which the self-cleavage is 0.4.

For the variant U41C A64G U72C, the self-cleavage came out at 0.79.

As to U41A U51C U58A, the self-cleavage stood at 0.09.

For U41C U43A U67C, the self-cleavage amounted to 0.15.

Turning to U41C A57G U72G, the self-cleavage is 0.43.

For U41A U43A U69C U72C, the self-cleavage came to 0.09.

For the variant U41A U43C U72C U80C, the self-cleavage is 0.43.

Take U41C A56U G70C U74A: the self-cleavage stood at 0.28.

With U41A U43C G46C U48A G53U U54C U76C, the self-cleavage worked out at 0.15.

On to U41A A56U U72A, for which the self-cleavage came to 0.13.

Turning to U41A A47U U60C U67G, the self-cleavage was 0.14.

U41A A64U G70C: the self-cleavage amounted to 0.16.

Turning to U41A A56U U78C, the self-cleavage was 0.2.

For U41A A45G U49A U51C A57G A65U, the self-cleavage was 0.17.

Take U41C A45G A56G A77G: the self-cleavage turned out to be 0.54.

Regarding U41C A47G A75G U80C, the self-cleavage is 0.64.

For the variant U41A U43C U48C U67C U69C, the self-cleavage turned out to be 0.22.

Take U41C G42A U78C: the self-cleavage came to 0.21.

Take U41A U49A U67A U72C U78C: the self-cleavage is 0.08.

With C40U U76A A77G, the self-cleavage stood at 0.79.

Consider U41A U49C G61A U66C U69C, for which the self-cleavage turned out to be 0.07.

Consider U41A U43A A75C, for which the self-cleavage worked out at 0.23.

Turning to U41A A45G U54A C59U, the self-cleavage came to 0.13.

For U41A A65G A75G, the self-cleavage is 0.09.

For the variant U41A U43C A64U, the self-cleavage worked out at 0.15.

For C40U U58G U80C, the self-cleavage was determined as 0.22.

Turning to U41A U51C U60C U72C U78C U80C, the self-cleavage was found to be 0.04.

With U41A A45C A56U, the self-cleavage turned out to be 0.19.

On to U41C A56G U58A G70C, for which the self-cleavage worked out at 0.14.

On to U41A G53A A56G U66A U76C U80C, for which the self-cleavage worked out at 0.1.

For U41C U43A A57G U72G, the self-cleavage is 0.42.

Consider U41A G42U A47G, for which the self-cleavage came out at 0.24.

Consider U41A U54C U76C, for which the self-cleavage amounted to 0.12.

With U41A U48C U51C A64U U72G, the self-cleavage was determined as 0.16.

Consider U41A U60G U72C U80A, for which the self-cleavage was 0.35.

As to U41C G46U U49C U72A, the self-cleavage came to 0.1.

With U41A A56G A57G G73A, the self-cleavage came out at 0.36.

Regarding U41C G42C A64G, the self-cleavage amounted to 0.54.

For the variant C40U U54A U69C, the self-cleavage was determined as 0.54.

U41A G46C G53C U54C U76C: the self-cleavage stood at 0.11.

Take U41A U58A U69C: the self-cleavage was found to be 0.12.

Turning to U41C C62U A65G U69A A75G, the self-cleavage is 0.21.

As for U41C G42C U48C, the self-cleavage was found to be 0.15.

Consider U41A U48C U51C G55A, for which the self-cleavage is 0.09.

U41A U48C U69G: the self-cleavage amounted to 0.12.

Take U41C A75G U78C: the self-cleavage was 0.79.

Regarding U41A A45G U54C A64U C81G, the self-cleavage is 0.03.

For the variant U41C C62G G63A A77G, the self-cleavage stood at 0.22.

U41A A45U A57G: the self-cleavage is 0.21.

For the variant U41C A47U U60C U67C, the self-cleavage turned out to be 0.06.

Take U41A A57G U74A: the self-cleavage is 0.81.

Consider U41C A45U G63A U69A U74A, for which the self-cleavage is 0.26.

Turning to U41A U43C A56G, the self-cleavage was 0.13.

With U41C A47G G73A, the self-cleavage stood at 1.29.

U41C A56U U60A: the self-cleavage stood at 0.42.

For U41C G42A A47G U80C, the self-cleavage is 0.38.

Take U41C U43A A45C: the self-cleavage was found to be 0.29.

For U41C G52A U67C U72A, the self-cleavage was 0.32.

For U41A A64G A65U U74C, the self-cleavage was 0.05.

For U41C A45G A64U U78A, the self-cleavage turned out to be 0.3.

As to U41C A45U A56G U60C, the self-cleavage came to 0.42.

With U41A G73A U78C, the self-cleavage came out at 0.41.

On to U41A C44G C50G U58C U60A, for which the self-cleavage was 0.15.

In the case of U41C G42A A45G U49C U66C U67A, the self-cleavage is 0.17.

Turning to U41A U69A U72C, the self-cleavage is 0.49.

In the case of C40U U60C U69C U74C A75G, the self-cleavage was 0.35.

In the case of U41C A47G A75U U80C, the self-cleavage came to 1.05.

For C40U U54A U78C, the self-cleavage was 0.87.

In the case of U41A U76C U78C, the self-cleavage came out at 0.43.

In the case of U41C A45G A56C G70A A75G, the self-cleavage was determined as 0.24.

In the case of U41A U58C U69A, the self-cleavage came out at 0.09.

Consider U41A C59U C71A U72C, for which the self-cleavage was found to be 0.08.

On to U41C C50A U54C U67C U69C, for which the self-cleavage worked out at 0.14.

On to U41A U49A U54C U78C, for which the self-cleavage turned out to be 0.16.

Take U41C A45G U58C U78C: the self-cleavage came out at 0.17.

Regarding U41A U49C A56G U80C, the self-cleavage turned out to be 0.25.

Turning to U41A U43A A64G A65G U67C, the self-cleavage came out at 0.07.

Turning to U41A U49A U54C A56G A64U C71U U78C, the self-cleavage amounted to 0.16.

As for U41A U72C A77G, the self-cleavage turned out to be 0.07.

For the variant U41C C50A U67C U80C, the self-cleavage was 0.23.

The record behind these values is the RNAGym collection of RNA variant scans (doi:10.1093/nar/gkz1192).
